# Experimental data taken from PubChem BioAssay AID2326 (National Center for Advancing Translational Sciences (NCATS), 2010).
# In all, about 270,000 compounds went through this assay and about 1,100 (0.41%) were called active. Roughly 3% stayed inconclusive and do not appear here. Calls follow the shape of the full dose curve. This is a selection; strong and weak results do not stand in their true shares. Where no call is shown, the source filed none.
# Assay: qHTS Assay for Inhibitors of Influenza NS1 Protein Function; also: actives are rising curves; nearly all actives have a fitted effect of over 50% in size
# Details: activity, positive = more growth: at 46.1 µM (top of the series)
# Source text: NIH Chemical Genomics Center [NCGC]
# NIH Molecular Libraries Probe Centers Network [MLPCN]
# Assay Submitter (PI): Daniel Engel
# Influenza is a world-wide public health problem and emerging forms of the virus have the potential to cause a pandemic of equal or greater magnitude to the outbreaks recorded in 1918, 1957 or 1968. Vaccine development is proceeding and there also exist two classes of anti-influenza compounds. However these therapeutic modalities are neither fully effective nor widely enough available to fulfill global needs. In addition their potential usefulness against newly emergent strains is not known. Efforts are needed to develop novel agents against influenza virus, including broad-spectrum agents. Identification of small molecules that inhibit NS1 function either directly or by interfering with specific cellular pathways may be a key to increasing our defense against the virus.
# We have miniaturized and optimized a cell based assay in which NS1 from influenza A is expressed in the budding yeast S. cerevisiae. NS1 is a multi-functional protein that counters the host innate immune response and facilitates viral versus cellular gene expression. Expression of NS1 causes a pronounced slow growth phenotype in yeast due to its intrinsic molecular activities. Small molecules that suppress the slow growth phenotype can be identified by a straightforward growth recovery assay using optical density (OD) as the measurement. The same yeast strain not expressing NS1 was used as positive control in the yeast growth recovery assay.
# The yeast S. cerevisiae control and NS1 expressing cells were kindly supplied by laboratory of Dr. Daniel Engel, University of Virginia. Yeast starter cultures were stored in single use aliquots at -80C.
# 1. Yeast culture medium per liter: 1.2 g Yeast Nitrogen Base (w/out amino acids and Ammonium Sulphate), 5.0g Ammonium Sulphate, 0.77g -URA DO (drop-out) Supplement, adjust pH to 6.0. Adjust to 2% glucose prior to inoculating with yeast.
# 2. Yeast assay medium: 1.2 g Yeast Nitrogen Base (w/out amino acids and Ammonium Sulphate), 5.0g Ammonium Sulphate, 0.77g -URA DO (drop-out) Supplement, adjust pH to 6.0. Adjust to 2% D-galactose prior to inoculating with yeast.
# 1. Inoculate 100 mls of yeast culture medium with 1 ml of frozen yeast aliquote. Incubate overnight at 30C, 250RPM.
# 2. Harvest overnight culture at 4000 RPM and wash pellet with 15 mls H2O 3x.
# 3. Re-suspend washed pellet in 10 mls of yeast assay medium.
# 4. Prepare a 1:100 dilution of re-suspended culture in yeast assay medium.
# 5. Dispense 3.5 ul per well of reagents in step 4 in columns 2-48 in a black clear bottom 1536 well plate.
# 6. Dispense 3.5 ul per well of yeast assay medium in column 1 only.
# 7. Transfer 23 nl of compound per well.
# 8. Dispense 3.5 ul per well of yeast assay medium in columns 1-48.
# 9. Read plate using Viewlux protocol for optical density 600 (OD600) using excitation filter 600nm.
# Potency is read from the fitted curve at half-maximal effect.
SMILES,"activity, positive = more growth",Potency
c1ccc(CCc2nn3c(C4COc5ccccc5O4)nnc3s2)cc1 (configuration not stated),-35.6%,–
CCCc1nc(SCC(=O)N2CCN(c3ccccc3)CC2)c2c(=O)n(C)c(=O)n(C)c2n1,-51.9%,–
Cc1cc(C2=NNC(=NC3CCCCC3)SC2)c(C)n1-c1c(C)n(C)n(-c2ccccc2)c1=O,31.1%,–
C=CCn1c(-c2cccc(Cl)c2)n[nH]c1=S,inactive: -40.7%,–
Cc1ccc(N2CCOCC2)c2c1C(=O)c1ccccc1C2=O,-34.1%,–
CCOC(=O)c1ccc(NC(=O)N2CCN(c3ccccn3)CC2)cc1,-56.7%,–
Cn1c(=O)c2c(nc(CN3CCN(c4ccccc4F)CC3)n2CCCc2ccccc2)n(C)c1=O,-139%,–
CCN(CC)N=Nc1ccc(S(=O)(=O)Nc2nc(C)cc(C)n2)cc1,-43%,–
COc1ccc(NS(=O)(=O)c2ccc3oc4ccccc4c3c2)cn1,-52%,–
O=C1c2[nH]nc(-c3ccccc3O)c2C(c2ccccc2F)N1Cc1ccco1 (configuration not stated),-196%,–
O=[N+]([O-])c1cc(Oc2cccnc2)cc([N+](=O)[O-])c1,-39.2%,–
COc1ccc(-c2[nH]c(-c3cccc(OC)c3)nc2SCC(=O)NC2CCCC2)cc1,-55.9%,–
O=C(CNC1CCCCCC1)Nc1ccccc1N1CCCCC1,inactive: -37.3%,–
Cc1ccccc1NC(=S)NCCc1ccccc1,-41.1%,–
Cc1ccc(SCC(=O)OCC(=O)NC(C)c2ccc(Br)cc2)cc1 (configuration not stated),-40%,–
COc1ccc(C(=O)Nc2nc3c(s2)CCCC3)cc1S(=O)(=O)N1CCCc2ccccc21,–,active: 12.6 µM
CC(C)C(=O)N1CCC(CN=Cc2c(O)n(C3CCCCC3)c(=O)n(C3CCCCC3)c2=O)CC1,-57.7%,–
CC(C)(C)NC(=S)Nc1ccc(Br)cc1,inactive: -52.7%,–
O=C1c2[nH]nc(-c3ccccc3O)c2C(c2cccc(Cl)c2)N1Cc1ccco1 (configuration not stated),-68%,–
c1cncc(-c2nc3cc4ccccc4cc3[nH]2)c1,inactive: -75.2%,–
Brc1ccc(-c2cn3nc4c(nc3n2)CCCC4)cc1,inactive: -23.9%,–
Cc1ccc(C)c(N2CCN(C(=O)Cc3ccc(-n4c(=O)[nH]c5ccsc5c4=O)cc3)CC2)c1,39.2%,–
CCc1ccc(CCC(=O)Nc2ccc(C)c(C)c2)o1,inactive: -61.2%,–

SMILES,"activity, positive = more growth",Potency
Cc1ccc(N(CC(=O)Nc2cc(C)cc(C)c2)S(=O)(=O)c2c(C)noc2C)cc1,32.1%,–
O=C(NC(=S)Nc1sc2c(c1C(=O)O)CCCC2)c1ccccc1,inactive: -38.6%,–
Cc1cc(O)c(-c2cc(C(=O)Nc3ccc(S(=O)(=O)N4CCOCC4)cc3)[nH]n2)cc1C,inactive: -35.8%,–
O=C(NCc1ccco1)C1CCN(c2nc3ccccc3n2Cc2ccccc2F)CC1,inactive: -64.8%,–
COc1ccc(C2C(C#N)=C(N)N(c3cccnc3)C3=C2C(=O)CC(C)(C)C3)cc1OC (configuration not stated),42.8%,–
COc1ccc(-c2nc(-c3ccc4c(c3)OCO4)[nH]c2-c2ccc(OC)cc2)cc1,-31%,–
COc1ccc(-c2nn(-c3ccccc3)cc2/C=C2/SC(=S)N(CCC(=O)O)C2=O)c(C)c1,–,active: 11.2 µM
COc1ccc(/C(O)=C2/C(=O)C(=O)N(CCCN(C)C)C2c2ccc(C)o2)cc1Cl (configuration not stated),inactive: -61.9%,–
Cc1ccc(NC(=O)c2cnn(-c3ccccc3)c2C)cc1,inactive: -44.5%,–
CC(C)OCCCN1C(=O)c2[nH]nc(-c3ccccc3O)c2C1c1cccc(Cl)c1 (configuration not stated),-86.3%,–
CCN(Cc1ccccc1)C(=S)NC(=O)c1ccccc1Br,inactive: -52.8%,–
CCOC(=O)C1(Cc2cccc(Cl)c2)CCCN(C(=O)C(C)(C)C)C1 (configuration not stated),-39.9%,–
COc1ccc2nc3c(cc2c1)c(NC(=O)c1cccs1)nn3CC(C)C,-137%,–
COc1cc(SC)ccc1C(=O)Nc1cccc(C2OCCCO2)c1,-33.7%,–
C=CCNC(=O)/C(C#N)=C/c1c(C)nn(-c2ccccc2)c1Cl,-47.1%,–
CC(C)(C)OC(=O)N1CCC[C@H]1c1nnc(SCc2ccc(Cl)cc2Cl)o1,-134%,–
Cc1cc(-c2ccc(C)c(S(=O)(=O)NCc3cccc(Br)c3)c2)on1,-34.4%,–
CCn1cc(C(=O)O)c(=O)c2cc(F)c(N/N=C/c3ccccc3)cc21,25.7%,–
COc1ccc(S(=O)(=O)NCC(c2cccnc2)N2CCN(c3ccccc3)CC2)cc1C (configuration not stated),inactive: -64.5%,–
COc1ccc(C2c3c(-c4ccccc4O)n[nH]c3C(=O)N2CCc2ccc(OC)c(OC)c2)cc1 (configuration not stated),-76.4%,–
O=C(Nc1ccc(Cl)cc1)Nc1cc([N+](=O)[O-])ccc1F,inactive: -31.2%,–
COc1ccc(-c2cc(C(F)F)nc(-n3nc(C)cc3C)n2)cc1,inactive: -49.7%,–
OCc1ccccc1OCCOc1ccc(Cl)c2cccnc12,-40.1%,–

SMILES,"activity, positive = more growth",Potency
Oc1c(Cl)cc(Cl)cc1CNc1nccs1,inactive: -47.8%,–
C=CCn1c(SCc2ccccc2)nc(O)cc1=O,–,active: 6.31 µM
COc1ccc(OC)c(NC(=O)c2cc3n(n2)C(C(F)(F)F)CC(c2ccc4c(c2)OCO4)N3)c1 (configuration not stated),-38.2%,–
O=C(Nn1nnnc1Nc1ccccc1)C12CC3CC(CC(C3)C1)C2,-32%,–
O=C(N/N=C/c1cccc([N+](=O)[O-])c1O)C(O)(c1ccccc1)c1ccccc1,-58.7%,–
O=c1c(C(c2ccccc2)c2c(O)nc3n(c2=O)CCCS3)c(O)nc2n1CCCS2,32.4%,–
Cc1ccc(C(=O)Nc2ccncc2)c(C)c1,inactive: -37.4%,–
O=C(c1cccc(F)c1)N1CCN(c2ccc([N+](=O)[O-])c(N3CCCCC3)c2)CC1,-32.3%,–
CC(C)C(=O)NC(c1cccc([N+](=O)[O-])c1)c1ccc2cccnc2c1O (configuration not stated),-134%,–
CCOC(=O)C1=C(C)N(c2ccccc2)C(=O)/C1=C\c1ccc(O)c(OC)c1,–,active: 2.51 µM
Cc1cccc(N2CCN(C(=O)/C=C/c3cccs3)CC2)c1C,-58.4%,–
Fc1ccc(NC(=S)NCCc2ccccc2)c(F)c1F,-67.8%,–
COc1ccccc1C(=O)Nc1ccccc1SC,-63.2%,–
C1=C(c2c[nH]c3ccccc23)CCNC1,inactive: -17.6%,–
COc1ccccc1N1CCN(C(c2cccs2)C(C)NS(=O)(=O)c2ccccc2)CC1 (configuration not stated),-91.3%,–
O=C(Nc1cccnc1)Nc1ccc(F)c(Cl)c1,-31.4%,–
O=C(NC1C2CC3CC(C2)CC1C3)c1ccc2c(c1)OCO2 (configuration not stated),-32.8%,–
CCOC(=O)c1ccc(NC(=O)CC2COc3ccccc3O2)cc1 (configuration not stated),-62.4%,–
CC(=O)N1CCCc2cc(S(=O)(=O)Nc3cccc(C)c3C)ccc21,16.2%,–
O=C1CN(CC(=O)N2CCOCC2)c2ccccc2O1,-106%,–
Cn1cccc1/C=C1\SC(=O)N(c2ccc(O)cc2)C1=O,31.5%,–
